Experimental data from PMC12136788.
The list shows a part of the results.

B1: chr12:36742118:36742119:-_ENSMUSG00000020577_ENSMUST00000020896|mus_mus|FALSE|FALSE (ssRNA)
RNA: GGGAGUUCUACAGUCCGACGAUCACCACUGAGGGCCAGGGAAUAUGGGGAACUUCGAUUGCUUUUUUAGCAAUGGAAAGAAAAAAAAAAUGUCUGGAGAAACUUAAGAGUAAAAUUUUUAAUUCCAUCGUUGACAUAAUGUGGCAACAGAGGAUUGAGCAUCA
B2: chr5:74677807:74677808:-_ENSG00000113163_ENST00000380494|hu_mus|FALSE|FALSE (ssRNA)
RNA: GGGAGUUCUACAGUCCGACGAUCACGGACACAUCGAUUGUUCAGAGGAGCACUAUCAUGAUCCACAGAAAAAUUACAAACUAUCCAAGUUUCAGGAUCAUUUUCAGUCAAGGCUGGGAUCUUUCGAAUAGCAGAAAGAUACAGCAACAGAGGAUUGAGCAUCA
B3: chr4:140556289:140556290:+_ENSMUSG00000036622_ENSMUST00000037055|mus_mus|mus_mus_mus_hu_False|1_78 (ssRNA)
RNA: GGGAGUUCUACAGUCCGACGAUCGAUGGAGCUCACCAGGCCCCCUUUUGCCGUGCAGAACCCUGUCCGGGUCACCACUGCCAGGACGUGCGGUCCCACAUAGGCCCGGGCCUGCAAGAUGAGGGUCCCGCAGAAGAGGGUGUGCAACAGAGGAUUGAGCAUCA
B4: chrX:161375010:161375011:-_ENSMUSG00000061778_ENSMUST00000112247|mus_hu|FALSE|FALSE (ssRNA)
RNA: GGGAGUUCUACAGUCCGACGAUCCAGCUGGAGGUGGCAAACUGAAACAGAAAAGCCCAAAUUAAGACAAAGUAGCACACCAGUGUCCUUUUAAGGUUUUAUUUCCUAGGCCAAUUUUGAAGGAACUGUUAUAUCAUUCUUCAUCAACAGAGGAUUGAGCAUCA
B5: chr7:149068622:149068623:-_ENSMUSG00000025139_ENSMUST00000001950|mus_hu|mus_mus_mus_hu_False|1_108 (ssRNA)
RNA: GGGAGUUCUACAGUCCGACGAUCGUGCAGGUACUGAGUGUGGCUUGUGGUCUGUCCUGGGUUAGAGUUGUUAAUAUCACGGAACAUACCAUCUAGAACGUUCCAGUCCCGCCUGACACCUUCAUUCCCAAUGGAGAAUCUGCUCAACAGAGGAUUGAGCAUCA
B6: chr2:78753848:78753849:+_ENSMUSG00000027011_ENSMUST00000028398|mus_hu|motif|central (ssRNA)
RNA: GGGAGUUCUACAGUCCGACGAUCGUUAUCUCCUUUAGGCCCAGCACUGCAAUUAGGAGGAGGAUCAAGGGUUAUUUCAGCGGGCUCCUUCUGAAUUCUUUUAGCACUAGUGGAUAACUUAGCAGUGGUUUUGCUAGAGAGUUUCAACAGAGGAUUGAGCAUCA
B7: chr12:48362563:48362564:+_ENSG00000134291_ENST00000256686|hu_hu|hu_hu_hu_mus_False|98_98 (ssRNA)
RNA: GGGAGUUCUACAGUCCGACGAUCUCCGUCAAGCCCUUCAAGCCCCACUUGCGGGGGAAACUGUAAUCACUUUGUAUGGGGAAGGAAAAGAAACGCCAAAAACUUUCCAAAAAGCGGGGGUGGGGUGAGGCGGGAGGGGGAGGUCAACAGAGGAUUGAGCAUCA
B8: chr2:132618855:132618856:+_ENSMUSG00000027350_ENSMUST00000028826|mus_hu|motif|central (ssRNA)
RNA: GGGAGUUCUACAGUCCGACGAUCUUCAGGUUCUUCCUCUGAAGCCCUGUAGUGGGUUGAAUGGUGGUCCCUCUUUUCCCCGGAACUGGCCAUGCUGACGUUUGACUCCUCAGAUUCCUCCUGGGGGUGUCCCUUUUCCUCAGACAACAGAGGAUUGAGCAUCA
B9: 94229784_94229904_786_CDS_ENSMUSG00000041912_ENSMUST00000166032|mouse|control|control (ssRNA)
RNA: GGGAGUUCUACAGUCCGACGAUCUUCCAGGGGUGUAGCUGGUCCCAUGCUAGAAUUGGUAUUUUUCCAUAAAGCUGCUUCUCCAGCUCCACCAGGCUCUGUCACUUCCUCUCUUCUCACACUGAUUGGCUGCUUUCGUGGGACCAACAGAGGAUUGAGCAUCA
B10: chr10:33190432:33190433:-_ENSG00000150093_ENST00000302278|hu_mus|hu_hu_hu_mus_True|8_8 (ssRNA)
RNA: GGGAGUUCUACAGUCCGACGAUCUACAUUUUCCAAACCUGCAUGUGAAUAAAACCCUGGCCACAGAGCCCCAAAACUACCCUACUGUGACUAAGAUGCUGCUGCUGUGAGCUUGGUGUUGCAAAAUUUUGCACGGGAGGAUUCCAACAGAGGAUUGAGCAUCA
B11: 21160581_21167256_384_CDS_ENSMUSG00000024317_ENSMUST00000052396|mouse|control|control (ssRNA)
RNA: GGGAGUUCUACAGUCCGACGAUCCAUUGCAGUCAGGAAACAUUUUCUACAGAAAACGUGCUGACAGGCCGCGGUCCGCACCGGCGUCUUGAGCACCUCCUGACAGACAGGGCAGUAGAAAUCAUCUUCCGUGUAGGACGUGGCCAACAGAGGAUUGAGCAUCA
B12: chr8:117878989:117878990:-_ENSG00000164754_ENST00000297338|hu_hu|hu_hu_hu_mus_True|1_108 (ssRNA)
RNA: GGGAGUUCUACAGUCCGACGAUCCCAGAGGCCCUCUUUUACUGAGGACAAAAUGUGCGUAGAACAUUUUUCUUAUUUGCUAUGAAAUAAGAAGAAACCUGGAUCUCGGCGGGGAGCCGGGAGGGGUGGGUGGCCCGGGGGAGGCAACAGAGGAUUGAGCAUCA
B13: chr15:99827826:99827827:+_ENSMUSG00000023025_ENSMUST00000100206|mus_hu|FALSE|FALSE (ssRNA)
RNA: GGGAGUUCUACAGUCCGACGAUCAUUCAUAGCAGCAGCAUUUGUUUUAUAAGAUCCUGGCGAAUUAAAGCCAUUCACAAAACUACCAUUGGGAAAGGGAGCCAGUGGUGUUUCAAAGUAAGGUGUAGGAUUUGGAGACCAAGACAACAGAGGAUUGAGCAUCA
B14: chrX:71549400:71549401:+_ENSMUSG00000019087_ENSMUST00000019231|mus_hu|mus_mus_mus_hu_False|48_88 (ssRNA)
RNA: GGGAGUUCUACAGUCCGACGAUCGCAGUAGGAAGAGGGAAGCUCUUCAUCCACUGUCGCUGCAGGGUGGGAAAGCAACAACACGGAACCAAUACUCCCCUCAACCCCCCCACUGGCACAGGGUCACACAAUCUGGGUCAAAGACAACAGAGGAUUGAGCAUCA
B15: chr2:29169617:29169618:+_ENSG00000163811_ENST00000407426|hu_mus|motif|central (ssRNA)
RNA: GGGAGUUCUACAGUCCGACGAUCCGUGUGACUGGCUGGCUGCAUCUGUCUUCAUUCUUCUUCACUCUCGUUUUCAGGAUCGGAAUCCGAAUCUCCAUUUAAUUCUUUUUCACUUGACACUUCUCUGUCCUCCUCAUUCUCUUCCAACAGAGGAUUGAGCAUCA
B16: chr14:62214197:62214198:+_ENSG00000100644_ENST00000337138|hu_mus|FALSE|FALSE (ssRNA)
RNA: GGGAGUUCUACAGUCCGACGAUCAAAGCAUUAUUUUCAUGUAAAACAUGAAAAAAAUGAGUAAAAAGUUUUCAACUGCCUAUGAUCAUGAUGAGAAUUUACUGCUUUCUUAAAAAAUUAUAUUGGCAUUUCAUUAAAAAUAAUCAACAGAGGAUUGAGCAUCA
B17: chrX:98862621:98862622:+_ENSMUSG00000034160_ENSMUST00000044475|mus_hu|mus_mus_mus_hu_False|28_68 (ssRNA)
RNA: GGGAGUUCUACAGUCCGACGAUCCUGCAUCUCCUUUAGAGUGUUUCCCAUAUUAGAGUAGGCAUCAGCAAAUGUAGGACUGAUUCGAAUAGCCUCCUUAUAAUGCAUCAGUGCUUCCUGCAGUUUUCCCUGCUGCUGCAGUACCAACAGAGGAUUGAGCAUCA
B18: chr10:128108517:128108518:-_ENSMUSG00000049858_ENSMUST00000054764|mus_hu|motif|central (ssRNA)
RNA: GGGAGUUCUACAGUCCGACGAUCAAAGUUGUGCAAGUCAUCCAGGGAAAGAGACAGUGACUGACCCCCAGGUGCUCCGGCGGCGUGUAAGCGAUAGGUGUCUGGAUCCAGGUUAGGUACAGGCAGAUGGUUCCGGGUGAAGAACAACAGAGGAUUGAGCAUCA
B19: chr1:193065829:193065830:-_ENSG00000023572_ENST00000367439|hu_hu|FALSE|FALSE (ssRNA)
RNA: GGGAGUUCUACAGUCCGACGAUCUUUUUUUAAAUAACACUGAUGAACUAGUGGGAGCAAUUUUCCUUCUUUGUGAAGCCUAUGAGUGUCAGUUGCACCUCCAAUAAAAGUACCAUUGACAAAUAUUCUUGGAACAGUUCUUUCCAACAGAGGAUUGAGCAUCA
B20: 25966313_25966433_3076_CDS_ENSG00000143970_ENST00000336112|human|control|control (ssRNA)
RNA: GGGAGUUCUACAGUCCGACGAUCCAUGGGAACAUCUUUGCCUUGAAGCAGCUGAGUCACUAAAGGAUUAUUAGCAGGGAUACUAGAGGUUGGUCUUAAAGUGGGUCCAUUCAUGUUUAAAGAAGUUCCUGGGGUUUUAAGGCUCAACAGAGGAUUGAGCAUCA
B21: chr4:131456860:131456861:+_ENSMUSG00000028911_ENSMUST00000053819|mus_mus|FALSE|FALSE (ssRNA)
RNA: GGGAGUUCUACAGUCCGACGAUCGGACCGAGAGCGUGUUUUUGAAGCCGAUUUUGACCUGGAGCGCGACUCUGCCGGGACAUUGGGUUUGGAUUUGGAGGUGGAUCUUGACCUGGCCCGGGGCUCUGGAUUGGGGGCCUCGCUCAACAGAGGAUUGAGCAUCA
B22: 97780863_97780983_4887_3pUTR_ENSMUSG00000028565_ENSMUST00000075448|mouse|control|control (ssRNA)
RNA: GGGAGUUCUACAGUCCGACGAUCUUUUUUUUUUUUUUUUUUUUUUUUUUUAGUGCACAUAUGUCAUCAUAAAGUAAUGCUCAGCUAAGUGCUAUAGGGAAGGCAAAGUCUGCUGCUGGCUAUAGGAAGUGACACCAUACACUGCAACAGAGGAUUGAGCAUCA

molecular target: T1, UNK ZnF1-3 (human, UniProt Q9C0B0 31-174); assay: nsRBNS (natural sequence RNA bind-n-seq); RBNS binding buffer (assumed for nsRBNS): 25 mM Tris pH 7.5, 150 mM KCl, 3 mM MgCl2, 0.01% Triton X-100, 500 ug/ml BSA, 20 U/ml SUPERase-In, 4 C; UNK is unkempt and MSI1 is Musashi-1; names of the RNAs are library labels; protein concentration not given here; high values mean tight binding
T1 sequence: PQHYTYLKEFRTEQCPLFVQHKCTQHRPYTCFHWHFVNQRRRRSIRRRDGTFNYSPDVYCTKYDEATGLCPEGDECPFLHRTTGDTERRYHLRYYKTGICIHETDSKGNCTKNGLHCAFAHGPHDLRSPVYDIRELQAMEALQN

Binder	binding signal
B1	1.14 enrichment R
B2	1.13 enrichment R
B3	0.38 enrichment R
B4	1.63 enrichment R
B5	0.745 enrichment R
B6	1.35 enrichment R
B7	2.38 enrichment R
B8	0.673 enrichment R
B9	0.766 enrichment R
B10	1.24 enrichment R
B11	1.14 enrichment R
B12	1.5 enrichment R
B13	2.15 enrichment R
B14	1.04 enrichment R
B15	0.373 enrichment R
B16	1.83 enrichment R
B17	1.01 enrichment R
B18	2.16 enrichment R
B19	0.912 enrichment R
B20	1.35 enrichment R
B21	1.21 enrichment R
B22	1.14 enrichment R
